Test results as given in the supplement of paper PMC11876631.
± gives the standard deviation of the averaged measurements. Laboratory Escherichia coli strains with one amino-acid change in an essential protein, pooled on minimal glucose agar with carbenicillin or gentamicin at twice the control MIC (plus kanamycin and chloramphenicol for the plasmids), 48 h. Fold change of barcode share against drug-free plates; higher = less susceptible. Active = above 20 in both replicates (the paper's putatively resistant). '<' = one read or none on drug, '>' = one read or none on a drug-free plate. Shares are relative, so most strains fall below 1 when a few take over. Listed are strains with at least 15 reads on both drug-free plates, and hits; most hits rest on fewer reference reads. Replicate rank correlation about 0.5. Edits are read from barcodes.

B1: mukB V760Q (protein)
chain: MIERGKFRSLTLINWNGFFARTFDLDELVTTLSGGNGAGKSTTMAAFVTALIPDLTLLHFRNTTEAGATSGSRDKGLHGKLKAGVCYSMLDTINSRHQRVVVGVRLQQVAGRDRKVDIKPFAIQGLPMSVQPTQLVTETLNERQARVLPLNELKDKLEAMEGVQFKQFNSITDYHSLMFDLGIIARRLRSASDRSKFYRLIEASLYGGISSAITRSLRDYLLPENSGVRKAFQDMEAALRENRMTLEAIRVTQSDRDLFKHLISEATNYVAADYMRHANERRVHLDKALEFRRELHTSRQQLAAEQYKHVDMARELAEHNGAEGDLEADYQAASDHLNLVQTALRQQEKIERYEADLDELQIRLEEQNEVVAEAIERQQENEARAEAAELEVDELKSQLADYQQALDVQQTRAIQYNQAIAALNRAKELCHLPDLTADCAAEWLETFQAKELEATEKMLSLEQKMSMAQTAHSQFEQAYQLVVAINGPLARNEAWDVARELLREGVDQRHLAEQVQPLRMRLSELEQRLREQQEAERLLADFCKRQGKNFDIDELEALHQELEARIASLSDSVSNAREERMALRQEQEQLQSRIQSLMQRAPVWLAAQNSLNQLSEQCGEEFTSSQDVTEYLQQLLEREREAIVERDEVGARKNAVDEEIERLSQPGGSEDQRLNALAERFGGVLLSEIYDDVSLEDAPYFSALYGPSRHAIVVPDLSQVTEHLEGLTDCPEDLYLIEGDPQSFDDSVFSVDELEKAVVQKIADRQWRYSRFPEVPLFGRAARESRIESLHAEREVLSERFATLSFDVQKTQRLHQAFSRFIGSHLAVAFESDPEAEIRQLNSRRVELERALSNHENDNQQQRIQFEQAKEGVTALNRILPRLNLLADDSLADRVDEIRERLDEAQEAARFVQQFGNQLAKLEPIVSVLQSDPEQFEQLKEDYAYSQQMQRDARQQAFALTEVVQRRAHFSYSDSAEMLSGNSDLNEKLRERLEQAEAERTRAREALRGHAAQLSQYNQVLASLKSSYDTKKELLNDLQRELQDIGVRADSGAEERARIRRDELHAQLSNNRSRRNQLEKALTFCEAEMDNLTRKLRKLERDYFEMREQVVTAKAGWCAVMRMVKDNGVERRLHRRELAYLSADDLRSMSDKALGALRLAVADNEHLRDVLRMSEDPKRPERKIQFFVAVYQHLRERIRQDIIRTDDPVEAIEQMEIELSRLTEELTSREQKLAISSRSVANIIRKTIQREQNRIRMLNQGLQNVSFGQVNSVRLNVNVRETHAMLLDVLSEQHEQHQDLFNSNRLTFSEALAKLYQRLNPQIDMGQRTPQTIGEELLDYRNYLEMEVEVNRGSDGWLRAESGALSTGEAIGTGMSILVMVVQSWEDESRRLRGKDISPCRLLFLDEAARLDARSIATLFELCERLQMQLIIAAPENISPEKGTTYKLVRKVFQNTEHVHVVGLRGFAPQLPETLPGTDEAPSQAS
B2: mukB V760D (protein)
chain: MIERGKFRSLTLINWNGFFARTFDLDELVTTLSGGNGAGKSTTMAAFVTALIPDLTLLHFRNTTEAGATSGSRDKGLHGKLKAGVCYSMLDTINSRHQRVVVGVRLQQVAGRDRKVDIKPFAIQGLPMSVQPTQLVTETLNERQARVLPLNELKDKLEAMEGVQFKQFNSITDYHSLMFDLGIIARRLRSASDRSKFYRLIEASLYGGISSAITRSLRDYLLPENSGVRKAFQDMEAALRENRMTLEAIRVTQSDRDLFKHLISEATNYVAADYMRHANERRVHLDKALEFRRELHTSRQQLAAEQYKHVDMARELAEHNGAEGDLEADYQAASDHLNLVQTALRQQEKIERYEADLDELQIRLEEQNEVVAEAIERQQENEARAEAAELEVDELKSQLADYQQALDVQQTRAIQYNQAIAALNRAKELCHLPDLTADCAAEWLETFQAKELEATEKMLSLEQKMSMAQTAHSQFEQAYQLVVAINGPLARNEAWDVARELLREGVDQRHLAEQVQPLRMRLSELEQRLREQQEAERLLADFCKRQGKNFDIDELEALHQELEARIASLSDSVSNAREERMALRQEQEQLQSRIQSLMQRAPVWLAAQNSLNQLSEQCGEEFTSSQDVTEYLQQLLEREREAIVERDEVGARKNAVDEEIERLSQPGGSEDQRLNALAERFGGVLLSEIYDDVSLEDAPYFSALYGPSRHAIVVPDLSQVTEHLEGLTDCPEDLYLIEGDPQSFDDSVFSVDELEKAVVDKIADRQWRYSRFPEVPLFGRAARESRIESLHAEREVLSERFATLSFDVQKTQRLHQAFSRFIGSHLAVAFESDPEAEIRQLNSRRVELERALSNHENDNQQQRIQFEQAKEGVTALNRILPRLNLLADDSLADRVDEIRERLDEAQEAARFVQQFGNQLAKLEPIVSVLQSDPEQFEQLKEDYAYSQQMQRDARQQAFALTEVVQRRAHFSYSDSAEMLSGNSDLNEKLRERLEQAEAERTRAREALRGHAAQLSQYNQVLASLKSSYDTKKELLNDLQRELQDIGVRADSGAEERARIRRDELHAQLSNNRSRRNQLEKALTFCEAEMDNLTRKLRKLERDYFEMREQVVTAKAGWCAVMRMVKDNGVERRLHRRELAYLSADDLRSMSDKALGALRLAVADNEHLRDVLRMSEDPKRPERKIQFFVAVYQHLRERIRQDIIRTDDPVEAIEQMEIELSRLTEELTSREQKLAISSRSVANIIRKTIQREQNRIRMLNQGLQNVSFGQVNSVRLNVNVRETHAMLLDVLSEQHEQHQDLFNSNRLTFSEALAKLYQRLNPQIDMGQRTPQTIGEELLDYRNYLEMEVEVNRGSDGWLRAESGALSTGEAIGTGMSILVMVVQSWEDESRRLRGKDISPCRLLFLDEAARLDARSIATLFELCERLQMQLIIAAPENISPEKGTTYKLVRKVFQNTEHVHVVGLRGFAPQLPETLPGTDEAPSQAS
B3: mukE L54A (protein)
chain: MSSTNIEQVMPVKLAQALANPLFPALDSALRSGRHIGLDELDNHAFLMDFQEYAEEFYARYNVELIRAPEGFFYLRPRSTTLIPRSVLSELDMMVGKILCYLYLSPERLANEGIFTQQELYDELLTLADEAKLLKLVNNRSTGSDVDRQKLQEKVRSSLNRLRRLGMVWFMGHDSSKFRITESVFRFGADVRAGDDPREAQRRLIRDGEAMPIENHLQLNDETEENQPDSGEEE
B4: mukE L102A (protein)
chain: MSSTNIEQVMPVKLAQALANPLFPALDSALRSGRHIGLDELDNHAFLMDFQEYLEEFYARYNVELIRAPEGFFYLRPRSTTLIPRSVLSELDMMVGKILCYAYLSPERLANEGIFTQQELYDELLTLADEAKLLKLVNNRSTGSDVDRQKLQEKVRSSLNRLRRLGMVWFMGHDSSKFRITESVFRFGADVRAGDDPREAQRRLIRDGEAMPIENHLQLNDETEENQPDSGEEE
B5: mukE L102Q (protein)
chain: MSSTNIEQVMPVKLAQALANPLFPALDSALRSGRHIGLDELDNHAFLMDFQEYLEEFYARYNVELIRAPEGFFYLRPRSTTLIPRSVLSELDMMVGKILCYQYLSPERLANEGIFTQQELYDELLTLADEAKLLKLVNNRSTGSDVDRQKLQEKVRSSLNRLRRLGMVWFMGHDSSKFRITESVFRFGADVRAGDDPREAQRRLIRDGEAMPIENHLQLNDETEENQPDSGEEE
B6: mukE L102D (protein)
chain: MSSTNIEQVMPVKLAQALANPLFPALDSALRSGRHIGLDELDNHAFLMDFQEYLEEFYARYNVELIRAPEGFFYLRPRSTTLIPRSVLSELDMMVGKILCYDYLSPERLANEGIFTQQELYDELLTLADEAKLLKLVNNRSTGSDVDRQKLQEKVRSSLNRLRRLGMVWFMGHDSSKFRITESVFRFGADVRAGDDPREAQRRLIRDGEAMPIENHLQLNDETEENQPDSGEEE
B7: mukE I98A (protein)
chain: MSSTNIEQVMPVKLAQALANPLFPALDSALRSGRHIGLDELDNHAFLMDFQEYLEEFYARYNVELIRAPEGFFYLRPRSTTLIPRSVLSELDMMVGKALCYLYLSPERLANEGIFTQQELYDELLTLADEAKLLKLVNNRSTGSDVDRQKLQEKVRSSLNRLRRLGMVWFMGHDSSKFRITESVFRFGADVRAGDDPREAQRRLIRDGEAMPIENHLQLNDETEENQPDSGEEE
B8: mukE L99Q (protein)
chain: MSSTNIEQVMPVKLAQALANPLFPALDSALRSGRHIGLDELDNHAFLMDFQEYLEEFYARYNVELIRAPEGFFYLRPRSTTLIPRSVLSELDMMVGKIQCYLYLSPERLANEGIFTQQELYDELLTLADEAKLLKLVNNRSTGSDVDRQKLQEKVRSSLNRLRRLGMVWFMGHDSSKFRITESVFRFGADVRAGDDPREAQRRLIRDGEAMPIENHLQLNDETEENQPDSGEEE
B9: mukE L99A (protein)
chain: MSSTNIEQVMPVKLAQALANPLFPALDSALRSGRHIGLDELDNHAFLMDFQEYLEEFYARYNVELIRAPEGFFYLRPRSTTLIPRSVLSELDMMVGKIACYLYLSPERLANEGIFTQQELYDELLTLADEAKLLKLVNNRSTGSDVDRQKLQEKVRSSLNRLRRLGMVWFMGHDSSKFRITESVFRFGADVRAGDDPREAQRRLIRDGEAMPIENHLQLNDETEENQPDSGEEE
B10: asd L175W (protein)
chain: MKNVGFIGWRGMVGSVLMQRMVEERDFDAIRPVFFSTSQLGQAAPSFGGTTGTLQDAFDLEALKALDIIVTCQGGDYTNEIYPKLRESGWQGYWIDAASSLRMKDDAIIILDPVNQDVITDGLNNGIRTFVGGNCTVSLMLMSLGGLFANDLVDWVSVATYQAASGGGARHMREWLTQMGHLYGHVADELATPSSAILDIERKVTTLTRSGELPVDNFGVPLAGSLIPWIDKQLDNGQSREEWKGQAETNKILNTSSVIPVDGLCVRVGALRCHSQAFTIKLKKDVSIPTVEELLAAHNPWAKVVPNDREITMRELTPAAVTGTLTTPVGRLRKLNMGPEFLSAFTVGDQLLWGAAEPLRRMLRQLA

The proteins below were run against Escherichia coli (laboratory strain) (assay: barcode share on antibiotic plates over drug-free plates; higher = less susceptible). Conditions: antibiotic: carbenicillin; 2× MIC (3.1 µg/mL).
Description: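 A pool of E. coli strains, each edited to carry one amino-acid change in an essential protein, was grown for 48 h on minimal glucose agar with or without antibiotic; strain barcodes were sequenced; mean of two replicates.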

| Protein | fold change of barcode share |
| --- | --- |
| B1 | 0.121 ± 0.046 |
| B2 | 0.282 ± 0.019 |
| B3 | 0.311 ± 0.035 |
| B4 | 0.954 ± 1.1 |
| B5 | 0.348 ± 0.091 |
| B6 | 0.344 ± 0.11 |
| B7 | 0.219 ± 0.028 |
| B8 | 0.295 ± 0.11 |
| B9 | 0.489 ± 0.44 |
| B10 | 1.69 ± 1.4 |

Same assay, conditions: antibiotic: gentamicin; 2× MIC (MIC 0.45 µg/mL)

| Protein | fold change of barcode share |
| --- | --- |
| B1 | < 0.0171 |
| B2 | < 0.0105 |
| B3 | < 0.0057 |
| B4 | < 0.00949 |
| B5 | < 0.0114 |
| B7 | < 0.0109 |
| B8 | < 0.0169 |
| B9 | < 0.0136 |
| B10 | 0.00393 ± 0.0018 |
